Measured values: PubChem BioAssay AID1347417 (National Center for Advancing Translational Sciences (NCATS), 2020)
Screen size: about 120,000 compounds; about 5,300 (4.4%) were called active. The inconclusive results got no clear call from the source; some entries with a clear call stand among them for comparison. The call rests on the fitted dose curve; in most records, active means well fitted inhibition curve with a large enough effect; inconclusive means small, poorly fitted or top-dose-only effect; inactive means no such curve, though single readings can be large or run the other way. Where the call is inconclusive, the potency comes from a doubtful curve fit.

experiment: qHTS Primary assay for Inhibitors of Plasmodium falciparum Dd2 growth in vitro; further: nearly all actives have a fitted effect of over 65% in size; conditions: P. falciparum Dd2 growth, SYBR Green, 72 h; series mostly up to 28.9 µM
Method in brief: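 Readout: SYBR Green fluorescence, 485 nm excitation, 535 nm emission, after ~16 h lysis at 37C. Before that, Dd2-infected red cells (2.5% hematocrit) grew 72 h with compound, 29 uM top final concentration.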
Potency means the concentration at half of the fitted maximal effect; tags describe the fitted curve by direction and shape.

SMILES	Potency
CCOC(=O)c1c(C)oc2nc(C)nc(NCc3ccc(OC)cc3OC)c12	inactive
Cc1cc(C)cc(NC(=O)C(=O)NCC(c2cccnc2)N2CCc3ccccc3C2)c1 (centres undefined)	inconclusive: 17.8 µM [inhibitor, single point]
Clc1cccc(-n2ncc3c(N4CCC(Cc5ccccc5)CC4)ncnc32)c1	inactive
CC(C)n1ccc2c(NC(=O)Cn3nc4c(cc3=O)CCCCC4)cccc21	inactive
CCCCNC(=O)C1CCC(Cn2c(=O)c3sccc3n(CC(=O)N3CCCC3)c2=O)CC1 (centres undefined)	inconclusive: 12.6 µM [inhibitor, single point]
CC1=C[C@@H](CNC(=O)C(C)C)[C@H](C(C)C)C[C@H]1Cc1nc2ncccc2[nH]1	inactive
O=C(Nc1ccccc1F)N1CC2CCC(C1)N2Cc1cccs1	inactive
O=C(NCc1ccc(F)cc1)c1nc(-c2cc(Cl)cc(Cl)c2)c2ccccn12	active: 10 µM
Cn1ccnc1C(=O)N1CCCCCCn2c(nnc2-c2ccc(F)cc2)CC1	inactive
Cc1cc(CN2CC(Oc3ccc(F)c(F)c3)C2)no1	inconclusive: 6.31 µM [inhibitor, partial curve, poor fit]
COc1cccc2ccc(N3CCN(Cc4ccccc4)CC(O)C3)nc12 (centres undefined)	inconclusive: 8.91 µM [inhibitor, single point]
CC(C)c1ccc(CN2CCCC3(CCN(C(=O)c4ccsc4)C3)C2)cc1 (centres undefined)	inconclusive: 14.1 µM [inhibitor, single point]
COc1ccccc1N1CCN(C2CCCN(Cc3cccc(C)n3)C2)CC1 (centres undefined)	inconclusive: 10 µM [inhibitor, single point]
CC(C)c1ccc(CN2CCC3(CC2)COCCN3C(=O)OCc2ccccc2)cc1	inconclusive: 3.16 µM [inhibitor, partial curve, poor fit]
CC(=O)N1CCC(C(=O)N(C)CC2(C)CCOCC2)CC1	inactive
CCOc1ccccc1NC(=O)C1CCN(S(=O)(=O)c2ccc3c(c2)CC(C)N3C(C)=O)CC1 (centres undefined)	inconclusive: 10 µM [inhibitor, single point]
COc1ccc(-c2cc(CC3(NC4CCN(C(C)=O)CC4)COC3)no2)cc1	inconclusive: 12.6 µM [inhibitor, single point]
N#Cc1cccc(CN2CCOC[C@H]2c2ncc(-c3ccc(Cl)cc3)[nH]2)c1	inconclusive: 1.58 µM [inhibitor, partial curve, poor fit]
COc1ccc(OCc2nc3c(n2Cc2ccccc2)C(=O)N(Cc2ccccc2C#N)CCN3)cc1OC	inconclusive: 7.94 µM [inhibitor, partial curve, poor fit]
COc1ccc(Cl)cc1S(=O)(=O)N1CCCC(CO)(Cc2cccc(Cl)c2)C1 (centres undefined)	inconclusive: 20 µM [inhibitor, partial curve, poor fit]
c1ccc(Nc2cc3c(cn2)CN(Cc2ccccn2)CCN3)cc1	inconclusive: 31.6 µM [inhibitor, single point]
Cc1ccc(CNC(=O)c2c(C)noc2-c2ccc3c(c2)OCO3)o1	inconclusive: 0.158 µM [inhibitor, full curve, poor fit]
COc1ccc(-n2nc(C3CCN(Cc4ccccc4)CC3)[nH]c2=O)cc1	inconclusive: 17.8 µM [inhibitor, single point]

SMILES	Potency
COc1ccc(CN2C[C@@H](F)[C@@H](OCc3nc4ccccc4o3)C2)cc1	inconclusive: 22.4 µM [inhibitor, partial curve, poor fit]
O=C(N1CCC(N[S+](=O)([O-])Cc2ccccc2F)CC1)N1CC2CC(C1)[C@H]1CCCC(=O)N1C2 (some centres undefined)	inactive
CN(CC1Cc2ccccc2CN1C)C(=O)c1cnc2nc[nH]n2c1=O (centres undefined)	inactive
O=C(Nc1nc2n(n1)C(c1ccc(F)cc1)C=C(c1ccccc1)N2)c1ccc(Cl)cc1 (centres undefined)	active: 10 µM
Cc1nc(CN2Cc3nc(Nc4ccc(C(F)(F)F)cc4)ccc3OCC2=O)cs1	active: 11.2 µM
O=C(c1ccc2ncccc2c1)N1CCC2(CC1)NCCc1c2[nH]c2ccccc12	inconclusive: 8.91 µM [inhibitor, partial curve, poor fit]
O=C1CC(c2ccccc2)N(Cc2ccncc2)CCCN(S(=O)(=O)c2cccc(F)c2)CCN1 (centres undefined)	active: 0.501 µM
CSc1ccc(CNC(=O)C2CCN(C(=O)c3ncn4c3COC(c3ccccc3)C4)CC2)cc1 (centres undefined)	inactive
CCCc1cnc2c(c1SCC(=O)N1CCC(C)CC1)c(=O)n(C)c(=O)n2C	inconclusive: 17.8 µM [inhibitor, single point]
Cc1nn2c(c1-c1ccccc1Oc1ccccc1)N(C(=O)c1ccc(F)cc1)CCC2	inactive
CCC1CCCCN1C(=O)Cn1c(=O)oc2cc(S(=O)(=O)N3CCCCC3)ccc21 (centres undefined)	inconclusive: 17.8 µM [inhibitor, single point]
COc1ccccc1CC(=O)NCc1nnc2cc(-c3nc(C4CC4)no3)ccn12	inconclusive: 17.8 µM [inhibitor, single point]
CN(C)C(=O)CCN1CCOC(CC(c2ccccc2)c2ccccc2)C1 (centres undefined)	inconclusive: 7.08 µM [inhibitor, partial curve]
COc1cc2c(cc1OC)C(COc1ccc3c(C)cc(=O)oc3c1)N(C(=O)c1cccc(C)c1)CC2 (centres undefined)	active: 5.01 µM
O[C@H]1[C@H](NCc2ccc(OC(F)(F)F)cc2)[C@H]2CO[C@H](O2)[C@@H]1N1CCN(c2ccccc2)CC1	inconclusive: 7.94 µM [inhibitor, partial curve, poor fit]
Cc1cn2nc(C(=O)N3CCC(NC(=O)c4ccc5ccccc5n4)CC3)cc2c(=O)[nH]1	inconclusive: 4.47 µM [inhibitor, partial curve]
COc1cccc(NC(=O)N[C@H]2CCN(C(=O)c3cnccn3)[C@@H]2C(=O)N[C@H](Cc2ccccc2)C(N)=O)c1	inactive
CCOCC(=O)N1C[C@@H](CO)[C@H](c2ccccn2)C1	inactive
COCCN1CCOC[C@H]2CCN(C(=O)c3ccoc3)C[C@H]21	inactive
Cc1nc(-c2cccs2)cc([C@H]2CN3CC[C@H]2C[C@@H]3CNC(=O)c2ccccc2)n1	active: 7.94 µM
CC(C)(Oc1nn(CC2CCOCC2)c2ccccc12)C(=O)Nc1cccnc1	inconclusive: 2.82 µM [inhibitor, partial curve, poor fit]
Cc1nc(-c2cccc(NC(=O)Nc3ccc([N+](=O)[O-])cc3)c2)no1	inconclusive: 7.94 µM [inhibitor, partial curve]
CC(C)CN1CCNC(=O)C1CC(=O)NC(C)(C)Cc1ccc(F)cc1 (centres undefined)	inconclusive: 12.6 µM [inhibitor, partial curve, poor fit]

SMILES	Potency
Cc1ccccc1OCCSc1nc2ccc(NC(=O)c3ccccc3)cc2s1	inconclusive: 1 µM [inhibitor, full curve]
Cc1cc2nc3n(c(=O)c2n1CC(=O)NC(C)CCc1ccccc1)CCCCC3 (centres undefined)	inactive
O=C(c1cccc(Br)c1)N1CCN(c2cc(-c3ccc(F)cc3)[nH]n2)CC1	inactive
O=C(Nc1ncc(-c2cccc(F)c2)c2c1OCC2)c1ccc(Cl)cc1	inconclusive: 31.6 µM [inhibitor, single point]
CCCc1cc(=O)oc2c3c(ccc12)OCN(Cc1ccc(OC)cc1)C3	active: 10 µM
Cc1ccccc1C(Cn1ccnc1-c1cnc[nH]1)N(C)C (centres undefined)	inconclusive: 20 µM [inhibitor, partial curve, poor fit]
CNC(=O)C1CCC(Cn2c(=O)c3sccc3n(Cc3ccc(F)cc3)c2=O)CC1 (centres undefined)	inactive
CC1(C(=O)Nc2cccc(Br)c2)Cc2ccccc2C(=O)O1 (centres undefined)	inactive
Cc1cc(C)n(Cc2ccc(C(=O)N3CCC(N4C[C@H](O)C[C@H]4C(=O)NC4CCCCC4)CC3)o2)n1	active: 5.01 µM
CC(=O)N1CCCc2cc(S(=O)(=O)N3CCC(C(=O)NC4CCC(C)CC4)CC3)ccc21 (centres undefined)	inconclusive: 12.6 µM [inhibitor, single point]
Cc1nn(-c2ccccc2)c(C)c1[C@@H]1C=C[C@@H](NCc2ccc(F)cc2)C1	active: 5.01 µM
O=C1NCCCCCCN(Cc2ccncc2)[C@@H]2CN(C(=O)Nc3ccccc3)CC[C@@H]12	inactive
COCC(=O)N1C[C@@H](COc2cccnc2)[C@H](c2ccncc2)C1	inactive
COc1ccc(-c2noc(-c3cccn3CC(=O)Nc3ccc(C)cc3)n2)cc1F	inconclusive: 1.12 µM [inhibitor, partial curve, poor fit]
CCOc1cc(-c2noc(-c3ncn4c3COC(c3ccc(F)cc3)C4)n2)ccc1OC (centres undefined)	inconclusive: 1.78 µM [inhibitor, partial curve, poor fit]
CCOc1ccccc1CN1CCC2(CCN([S+](=O)([O-])c3cccc(C(F)(F)F)c3)CC2)Oc2ccccc21	active: 8.91 µM
Cc1ccc(-n2ncc3c2CCCC3NS(=O)(=O)N2CCCC2)cc1C (centres undefined)	inactive
COc1ccc(C(=O)NC2CCN(C(=O)N3CC4CC(C3)[C@H]3CCCC(=O)N3C4)CC2)cc1F (some centres undefined)	inconclusive: 11.2 µM [inhibitor, single point]
O=C(CCc1conc1-c1ccc(F)cc1)NCC1CCCO1 (centres undefined)	inactive
CN(C)CCN(C)C(=O)c1ccc(-c2ncc3cnc(-c4ccccc4)cn23)cc1	inactive
O=C(NCc1ccncc1)C1CN(C(=O)c2ccc(F)cc2)CC12CCOCC2 (centres undefined)	inactive
Cc1ccn(CCC(=O)NCc2cccnc2Oc2ccc(F)c(F)c2)n1	inactive
Cc1ccccc1C(=O)N1CCC2(CC1)CCN(Cc1cccs1)c1ccccc1O2	inconclusive: 12.6 µM [inhibitor, partial curve, poor fit]
